Patent US20250361299A1 (published 2025)
Read-outs that look alike come from different tables or passages of the source. Blank lines part the entries; values can stand above or below the binder they belong to.

Key:
Experiment in all cases: ELISA; with uPA
Recombinant human EGFR [1] = molecular target: T1, Recombinant human EGFR (human, UniProt P00533 in part)
Human CD3 protein [2] = molecular target: T2, Human CD3 protein (human, UniProt P07766 23-126)
T2 chain: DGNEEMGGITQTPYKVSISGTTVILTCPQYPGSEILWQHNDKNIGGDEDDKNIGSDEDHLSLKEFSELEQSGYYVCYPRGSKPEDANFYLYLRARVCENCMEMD

Recombinant human EGFR [3] = molecular target: T1, Recombinant human EGFR; remark: listed apart in the source
Human CD3 protein [4] = molecular target: T2, Human CD3 protein

EC50 (Recombinant human EGFR [1]): 9.09 µg/mL
EC50 (Human CD3 protein [2]): 2.33 µg/mL
B1: 1.7.1 proBiTE after uPA digestion (bispecific antibody)
heavy: SDNHGGGGSEVQLVESGGGLVQPGGSLRLSCAASGFTFNTYAMNWVRQAPGKGLEWVARIRSKYNNYATYYADSVKGRFTISRDDSKNTLYLQMNSLRAEDTAVYYCARHGNFGSSYVSYFAYWGQGTTVTVSSASTKGPSVFPLAPSSKSTSGGTAALGCLVKDYFPEPVTVSWNSGALTSGVHTFPAVLQSSGLYSLSSVVTVPSSSLGTQTYICNVNHKPSNTKVDKKVEPKS[human IgG1 Fc with T366L Y407H (EU numbers) cut from this listing]GGGGSGGGGSGGGGSGGGGSEVQLVETGGGVVQPGRSLRLSCAASGFTFSSYAMHWVRQAPGKGLEWVAVISYDGSNKYYADSVKGRFTISRDNSKNTLYLQMNSLRAEDTAVYYCARGYVARGDFDYWGQGTLVTVSSGGGGSGGGGSGGGGSGGGGSDVVMTQSPSTLSASVGDRVTITCRASQSMSRWLAWYQQKPGKGPKLLIYATSTLQSGVPSRFSGSGSGTEFTLTISSLQPEDFATYYCQQLDSFPFSFTFGPGTKVDLK
light: EIVVTQSPATLSVSPGERATLSCRSSTGAVTTSNYANWVQQKPGQAPRGLIGGANKRAPGVPARFSGSLSGDEATLTISSLQSEDFAVYYCALWYSNLWVFGQGTKLEIKRTVAAPSVFIFPPSDEQLKSGTASVVCLLNNFYPREAKVQWKVDNALQSGNSQESVTEQDSKDSTYSLSSTLTLSKADYEKHKVYACEVTHQGLSSPVTKSFNRGE[human IgG1 Fc with T366L Y407H (EU numbers) cut from this listing]GGGGSGGGGSGGGGSGGGGSEVQLVETGGGVVQPGRSLRLSCAASGFTFSSYAMHWVRQAPGKGLEWVAVISYDGSNKYYADSVKGRFTISRDNSKNTLYLQMNSLRAEDTAVYYCARGYVARGDFDYWGQGTLVTVSSGGGGSGGGGSGGGGSGGGGSDVVMTQSPSTLSASVGDRVTITCRASQSMSRWLAWYQQKPGKGPKLLIYATSTLQSGVPSRFSGSGSGTEFTLTISSLQPEDFATYYCQQLDSFPFSFTFGPGTKVDLK

EC50 (Recombinant human EGFR [3]): 30.2 µg/mL
EC50 (Human CD3 protein [4]): 2.98 µg/mL
B2: 1.6 proBiTE after uPA digestion (bispecific antibody)
heavy: SDNHGGSSGGSEVQLVESGGGLVQPGGSLRLSCAASGFTFNTYAMNWVRQAPGKGLEWVARIRSKYNNYATYYADSVKGRFTISRDDSKNTLYLQMNSLRAEDTAVYYCARHGNFGSSYVSYFAYWGQGTTVTVSSASTKGPSVFPLAPSSKSTSGGTAALGCLVKDYFPEPVTVSWNSGALTSGVHTFPAVLQSSGLYSLSSVVTVPSSSLGTQTYICNVNHKPSNTKVDKKVEPKS[human IgG1 Fc with T366L Y407H (EU numbers) cut from this listing]GGGGSGGGGSGGGGSEVQLVETGGGVVQPGRSLRLSCAASGFTFSSYAMHWVRQAPGKGLEWVAVISYDGSNKYYADSVKGRFTISRDNSKNTLYLQMNSLRAEDTAVYYCARGYVARGDFDYWGQGTLVTVSS
light: EIVVTQSPATLSVSPGERATLSCRSSTGAVTTSNYANWVQQKPGQAPRGLIGGANKRAPGVPARFSGSLSGDEATLTISSLQSEDFAVYYCALWYSNLWVFGQGTKLEIKRTVAAPSVFIFPPSDEQLKSGTASVVCLLNNFYPREAKVQWKVDNALQSGNSQESVTEQDSKDSTYSLSSTLTLSKADYEKHKVYACEVTHQGLSSPVTKSFNRGE[human IgG1 Fc with T366L Y407H (EU numbers) cut from this listing]GGGGSGGGGSGGGGSDVVMTQSPSTLSASVGDRVTITCRASQSMSRWLAWYQQKPGKGPKLLIYATSTLQSGVPSRFSGSGSGTEFTLTISSLQPEDFATYYCQQLDSFPFSFTFGPGTKVDLK
